Values marked as one replicate rest on one cluster of the flow cell; about a third of the high ones do not repeat.
What follows are sequences tested on ATP (assay: switch fluorescence ratio, 500 uM ATP over buffer (Cy3 cluster intensity, sum of 5 cycles each) (fold (ratio)); higher = stronger signal-on switching upon ATP binding; sequences stand for … in TCGTCGGCAGCGTCAGATGTGTATAAGAGACAGTTTTTTTTTTTTTTTTTTTTTTTTT…TC). Conditions: aptamer strand: ATP DNA aptamer (quencher-CACCTGGGGGAGTATTGCGGAGGAAGG + anchor), 100 nM annealed; ATP concentration: 500 uM; one replicate.
In short: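 Values give the fluorescence ratio for each switch-domain sequence, averaged from per-cluster ratios of summed target-cycle to summed buffer-cycle Cy3 intensity. The Cy3-labelled switching-strand clusters sat on a modified Illumina MiSeq flow-cell, were annealed to 100 nM quencher-labelled ATP aptamer, and were imaged in selection buffer, then after 15 min with 500 uM ATP at 22 °C. Five cycles ran with NaOH stripping and re-annealing between them, and clusters outside 100-1000 RFU were excluded.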
For GGGAACCGAT, the switch fluorescence ratio was 0.964.
GGGAACCGCA showed a switch fluorescence ratio of 1.08.
Work on GGGAAGCCTG yielded a switch fluorescence ratio of 1.01.
For GGGAAGGACA, the switch fluorescence ratio was 0.971.
In the case of GGGAATAGTT, the switch fluorescence ratio is reported as 0.971.
In the case of GGGAATCGGA, the switch fluorescence ratio is reported as 0.998.
Work on GGGAATCTAT yielded a switch fluorescence ratio of 0.999.
With GGGAATGGCC the switch fluorescence ratio was 1.04.
GGGACAGTTT gave a switch fluorescence ratio of 0.988.
With GGGACATGAC the switch fluorescence ratio was 1.08.
Sequence GGGACCCGGT has a switch fluorescence ratio of 1.05.
Sequence GGGACCGCG has a switch fluorescence ratio of 0.996.
Sequence GGGACCGGGT has a switch fluorescence ratio of 1.03.
Work on GGGACCTCCT yielded a switch fluorescence ratio of 1.01.
In the case of GGGACGAAAG, the switch fluorescence ratio is reported as 1.04.
Sequence GGGACGATGT has a switch fluorescence ratio of 0.985.
GGGACTGGCC showed a switch fluorescence ratio of 0.928.
In the case of GGGAGAATCC, the switch fluorescence ratio is reported as 1.04.
GGGAGAGCCG showed a switch fluorescence ratio of 1.09.
GGGAGAGCT gave a switch fluorescence ratio of 0.992.
In the case of GGGAGCGCTC, the switch fluorescence ratio is reported as 0.996.
GGGAGGATCA showed a switch fluorescence ratio of 1.02.
With GGGAGGGGAC the switch fluorescence ratio was 1.01.
GGGAGTATTC showed a switch fluorescence ratio of 0.983.
GGGAGTCGGC showed a switch fluorescence ratio of 1.07.
GGGAGTTGTA gave a switch fluorescence ratio of 0.954.
Work on GGGATAAACG yielded a switch fluorescence ratio of 0.947.
GGGATAATCT was tested, and the switch fluorescence ratio was 1.01.
Sequence GGGATATCGC has a switch fluorescence ratio of 0.975.
For GGGATCACGC, the switch fluorescence ratio was 1.04.
With GGGATCCCAA the switch fluorescence ratio was 1.03.
Work on GGGATCGCAA yielded a switch fluorescence ratio of 1.25.
GGGATCGCCT gave a switch fluorescence ratio of 0.992.
GGGATCGTGG gave a switch fluorescence ratio of 0.992.
In the case of GGGATCGTTC, the switch fluorescence ratio is reported as 1.05.
Work on GGGATCTTTC yielded a switch fluorescence ratio of 1.03.
In the case of GGGATGCCTG, the switch fluorescence ratio is reported as 1.1.
In the case of GGGATGCGAG, the switch fluorescence ratio is reported as 0.977.
For GGGATTCATC, the switch fluorescence ratio was 1.
GGGATTCCAG gave a switch fluorescence ratio of 0.999.
In the case of GGGATTCGCG, the switch fluorescence ratio is reported as 0.93.
For GGGATTGCGC, the switch fluorescence ratio was 1.01.
In the case of GGGCAAAAGG, the switch fluorescence ratio is reported as 0.982.
GGGCACCAGA was tested, and the switch fluorescence ratio was 0.958.
In the case of GGGCAGAGCT, the switch fluorescence ratio is reported as 0.995.
GGGCAGGAAA gave a switch fluorescence ratio of 0.967.
GGGCAGGAAT showed a switch fluorescence ratio of 0.987.
For GGGCAGGAGG, the switch fluorescence ratio was 0.971.
GGGCAGGGCA showed a switch fluorescence ratio of 0.975.
GGGCAGGGTG showed a switch fluorescence ratio of 1.07.
GGGCCAGGTT was tested, and the switch fluorescence ratio was 1.02.
With GGGCCATCTG the switch fluorescence ratio was 0.938.
For GGGCCCAAGC, the switch fluorescence ratio was 1.
GGGCCGCACA gave a switch fluorescence ratio of 1.29.
Sequence GGGCCGCGGA has a switch fluorescence ratio of 1.03.
Sequence GGGCCGGTGG has a switch fluorescence ratio of 0.995.
GGGCCTCAGG gave a switch fluorescence ratio of 0.966.
For GGGCCTCTCT, the switch fluorescence ratio was 0.946.
GGGCCTGTCT was tested, and the switch fluorescence ratio was 1.03.
In the case of GGGCGAAGTG, the switch fluorescence ratio is reported as 0.955.
Work on GGGCGAGGGA yielded a switch fluorescence ratio of 1.16.
Sequence GGGCGATTGC has a switch fluorescence ratio of 0.979.
For GGGCGGATTG, the switch fluorescence ratio was 1.01.
Work on GGGCGGCTAG yielded a switch fluorescence ratio of 0.949.
GGGCGGTAGA showed a switch fluorescence ratio of 1.06.
GGGCGGTGT gave a switch fluorescence ratio of 1.
GGGCGGTTAA showed a switch fluorescence ratio of 1.
For GGGCGTCAGA, the switch fluorescence ratio was 1.02.
GGGCGTCCCG showed a switch fluorescence ratio of 0.995.
GGGCTACTAT gave a switch fluorescence ratio of 1.08.
For GGGCTAGGTC, the switch fluorescence ratio was 0.988.
For GGGCTCAGGT, the switch fluorescence ratio was 1.1.
GGGCTTCACG was tested, and the switch fluorescence ratio was 0.985.
Work on GGGCTTCG yielded a switch fluorescence ratio of 1.02.
GGGGA showed a switch fluorescence ratio of 1.03.
Sequence GGGGAAGGCT has a switch fluorescence ratio of 1.01.
With GGGGAAGTG the switch fluorescence ratio was 0.977.
GGGGACCACG gave a switch fluorescence ratio of 1.02.
In the case of GGGGACTTCG, the switch fluorescence ratio is reported as 1.01.
GGGGAGACAT showed a switch fluorescence ratio of 0.99.
GGGGAGAGCT was tested, and the switch fluorescence ratio was 0.957.
With GGGGAGCCTG the switch fluorescence ratio was 0.959.
GGGGAGTAGA showed a switch fluorescence ratio of 1.
In the case of GGGGATAGTT, the switch fluorescence ratio is reported as 0.948.
GGGGATATT showed a switch fluorescence ratio of 0.999.

From the supplement of paper PMC10126150
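Note: ATP exposure 15 min at 22 °C before imaging.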
